{
  "source": "PubChem BioAssay AID504333",
  "about": "(National Center for Advancing Translational Sciences (NCATS), 2011)",
  "note": "About 16,000 (4.4%) of roughly 360,000 compounds were called active. Inconclusive results, whose numbers are uncertain, are shown with a selection of clear calls. Calls follow the shape of the dose curve; as a rule, active = well fitted inhibition curve with a large enough effect; inconclusive = small, poorly fitted or top-dose-only effect; inactive = no such curve, though single readings can be large or run the other way. A potency beside an inconclusive call is a rough fit, not a confirmed value. % is scaled to controls: 0 for no effect and ±100 for the full control effect; potency is read from the fitted curve at half-maximal effect; tags tell the direction and shape of the fitted curve.",
  "data": [
    {"target": "Bromodomain adjacent to zinc finger domain protein 2B (Homo sapiens) (UniProt Q9UIF8)", "sequence (Q9UIF8 whole entry, looked up, the tested form may be a part)": "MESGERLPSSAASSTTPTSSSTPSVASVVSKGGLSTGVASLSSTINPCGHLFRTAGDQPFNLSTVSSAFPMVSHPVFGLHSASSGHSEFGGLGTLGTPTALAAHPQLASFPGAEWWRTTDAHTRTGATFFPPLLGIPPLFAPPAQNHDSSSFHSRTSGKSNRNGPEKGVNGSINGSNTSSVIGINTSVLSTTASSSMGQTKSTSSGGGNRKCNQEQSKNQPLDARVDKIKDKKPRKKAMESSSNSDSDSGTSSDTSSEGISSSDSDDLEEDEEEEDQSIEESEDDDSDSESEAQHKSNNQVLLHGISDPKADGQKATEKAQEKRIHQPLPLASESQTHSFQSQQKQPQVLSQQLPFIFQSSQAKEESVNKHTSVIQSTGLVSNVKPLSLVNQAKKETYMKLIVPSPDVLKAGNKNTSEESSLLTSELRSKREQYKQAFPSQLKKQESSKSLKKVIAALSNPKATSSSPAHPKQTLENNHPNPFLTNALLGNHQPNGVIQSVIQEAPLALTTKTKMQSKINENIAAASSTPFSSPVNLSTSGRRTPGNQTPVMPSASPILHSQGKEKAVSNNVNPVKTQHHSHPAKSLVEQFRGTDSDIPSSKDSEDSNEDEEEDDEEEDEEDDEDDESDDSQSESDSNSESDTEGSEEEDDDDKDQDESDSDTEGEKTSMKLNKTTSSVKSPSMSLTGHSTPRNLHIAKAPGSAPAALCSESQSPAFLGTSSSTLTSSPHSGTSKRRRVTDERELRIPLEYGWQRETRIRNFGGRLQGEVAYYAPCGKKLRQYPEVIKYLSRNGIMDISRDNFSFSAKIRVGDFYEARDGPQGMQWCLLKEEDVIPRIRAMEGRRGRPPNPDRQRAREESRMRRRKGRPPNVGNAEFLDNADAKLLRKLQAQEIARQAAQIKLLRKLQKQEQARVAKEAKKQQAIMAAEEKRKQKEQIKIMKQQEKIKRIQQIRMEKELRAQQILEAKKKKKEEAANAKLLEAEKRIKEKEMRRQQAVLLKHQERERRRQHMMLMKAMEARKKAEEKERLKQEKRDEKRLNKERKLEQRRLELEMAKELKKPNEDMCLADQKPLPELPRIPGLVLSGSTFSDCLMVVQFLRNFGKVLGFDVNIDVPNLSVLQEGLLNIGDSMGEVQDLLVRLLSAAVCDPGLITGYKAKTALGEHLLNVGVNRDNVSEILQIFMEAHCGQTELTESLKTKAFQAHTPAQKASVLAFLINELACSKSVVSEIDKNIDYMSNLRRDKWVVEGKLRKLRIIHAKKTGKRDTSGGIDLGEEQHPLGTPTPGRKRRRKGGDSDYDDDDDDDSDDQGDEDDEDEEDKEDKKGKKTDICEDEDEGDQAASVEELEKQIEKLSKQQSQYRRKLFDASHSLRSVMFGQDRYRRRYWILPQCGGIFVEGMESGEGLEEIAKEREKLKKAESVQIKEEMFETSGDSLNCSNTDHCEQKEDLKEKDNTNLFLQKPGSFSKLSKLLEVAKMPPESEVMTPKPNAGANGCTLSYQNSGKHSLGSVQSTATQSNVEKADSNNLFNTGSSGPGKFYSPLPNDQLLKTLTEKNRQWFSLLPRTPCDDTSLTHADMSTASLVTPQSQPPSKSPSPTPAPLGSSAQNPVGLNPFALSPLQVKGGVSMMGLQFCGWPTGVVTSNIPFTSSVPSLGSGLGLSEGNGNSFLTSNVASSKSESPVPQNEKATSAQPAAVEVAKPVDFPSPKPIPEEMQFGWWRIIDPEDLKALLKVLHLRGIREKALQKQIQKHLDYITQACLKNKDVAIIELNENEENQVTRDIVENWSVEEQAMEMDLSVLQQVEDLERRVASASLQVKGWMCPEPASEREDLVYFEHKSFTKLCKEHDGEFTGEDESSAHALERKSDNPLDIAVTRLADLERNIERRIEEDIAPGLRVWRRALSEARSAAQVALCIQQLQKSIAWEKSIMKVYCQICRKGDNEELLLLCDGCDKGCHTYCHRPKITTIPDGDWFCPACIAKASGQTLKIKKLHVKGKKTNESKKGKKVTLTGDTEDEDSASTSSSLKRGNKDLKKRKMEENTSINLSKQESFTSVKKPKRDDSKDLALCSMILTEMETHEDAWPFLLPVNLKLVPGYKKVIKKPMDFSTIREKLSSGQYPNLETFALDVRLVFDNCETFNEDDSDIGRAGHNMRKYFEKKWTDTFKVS", "experiment": "qHTS Assay for Inhibitors of BAZ2B; also: nearly all actives have a fitted effect of over 60% in size", "settings": "AlphaScreen BAZ2B-H3K14Ac peptide displacement; activity change, negative = inhibition: at 114 µM (top of the series)", "text": "BAZ2B (bromodomain adjacent to zinc finger domain, 2B) belongs to a family of ubiquitously expressed bromodomain containing proteins, which biological function has not yet been elucidated. […] The interaction of BAZ2B with ISWI mediated by the BAZ1 motif has recently been described. […] The protocol is based on the AlphaScreen (PerkinElmer) displacement assay developed by NCGC [5], but uses the peptide ligand Biot-H3K14Ac, a high affinity binding partner for BAZ2B, in an AlphaScreen format. Although AlphaScreen has significant advantages with its utility in a variety of epigenetic target assays, the primary screening data provided in this deposition should be used with caution due to the prevalence of screening artifacts. The top compound concentration tested was 110uM in this assay, which increases number of actives and potential artifacts. An AlphaScreen counterscreen is highly recommended to be run against any putative actives to eliminate non-specific artifacts. Alternatively, one can use other AlphaScreen assays in PubChem to filter out promiscuous hits. Eberharter, A. et al. ACF1 improves the effectiveness of nucleosome mobilization by ISWI through PHD-histone contacts. The EMBO journal 23, 4029-4039. 2004. PMID: 15457208 [2] Jones, M.H. et al. A novel family of bromodomain genes. Genomics 63, 40-45. 2000. PMID: 10662543 [3] Yasgar, et al. Compound Management for Quantitative High-Throughput Screening. JALA. 2008 Apr;13(2):79-89. PMID: 18496600 [4] Inglese, et al. Quantitative high-throughput screening: a titration-based approach that efficiently identifies biological activities in large chemical libraries. Proc Natl Acad Sci. 1;103(31):11473-8. 2006. PMID: 16864780 [5] Quinn et al. A chemiluminescence-based method for identification of histone lysine methyltransferase inhibitors. Mol Biosyst 6(5): 782-8. 2010. PMID: 20567762 [6] Baell,Holloway. New substructure filters for removal of pan assay interference compounds (PAINS) from screening libraries and for their exclusion in bioassays. J Med Chem. 53(7):2719-40. 2010. PMID: 20131845 NIH Molecular Libraries Probe Production Network [MLPCN] NIH Chemical Genomics Center [NCGC] Structural Genomics Consortium (SGC) NIH Grant: 5U54 MH084681-02\nTo each well of a 1,536w plate, 2ul of BAZ2B protein (final 50nM) and 1ul biotinylated histone peptide acetylated at Lys14 [b-H3(5-23)K14Ac] (final 50nM) were added in 1x PBS buffer, pH 7.4, containing 0.01% Tween-20, using a nanoliter dispenser. Formation of a protein-peptide complex proceeded at room temperature for 30 min. A Kalypsys pin-tool was employed to transfer 23 nL of library compound solution in DMSO to each well. Following a 30 min incubation of the protein-peptide complex with compounds at room temperature, a mixture of 40 ug/mL each streptavidin-coated donor and nickel chelate acceptor AlphaScreen beads (final 10 ug/mL) were added in a 1ul dispense for a final volume of 4ul. A brief centrifugation followed (1000rpm, 1 min) and were then incubated protected from the light for 20 min at room temperature. Plates were read on an EnVision multilabel plate reader using the 1,536 plate HTS AlphaScreen aperture (excitation time 80 ms, measurement time 240 ms).", "values": [
      {"smiles": "O=C(COc1ccccc1Cl)N1CCN(CCc2ccncc2)CC1", "Potency": "inconclusive: 89.1 µM [inhibitor, single point]"},
      {"smiles": "O=C(NC(=S)Nc1ccccc1N1CCCC1)c1ccccc1Br", "Potency": "active: 11.2 µM"},
      {"smiles": "CCCCn1cnc2cc(NCc3cccc(OC)c3O)ccc21", "Potency": "inconclusive: 79.4 µM [inhibitor, single point]"},
      {"smiles": "CCOC(=O)C1=C(C)OC(N)=C(C#N)C12C(=O)Nc1ccc(C)cc12", "note": "(stereo unspecified)", "Potency": "inconclusive: 89.1 µM [inhibitor, single point]"},
      {"smiles": "Cc1nc(-c2nc(-c3c(C(=O)NNC(=O)c4ccc(Cl)cc4)noc3C)cs2)cs1", "Potency": "inconclusive: 89.1 µM [inhibitor, single point]"},
      {"smiles": "COc1ccc2[nH]c(C)c(CCNCc3cc(OC)c4c(c3)OCO4)c2c1", "Potency": "active: 44.7 µM"},
      {"smiles": "COC(=O)c1c(C)n(Cc2ccc3c(c2)OCO3)c2ccc(O)cc12", "Potency": "inconclusive: 44.7 µM [inhibitor, partial curve]"},
      {"smiles": "COc1ccc(-c2c(C)nn3c(-c4ccccc4)cc(C)nc23)cc1OC", "Potency": "inconclusive: 3.16 µM [inhibitor, full curve]"},
      {"smiles": "COc1ccc(OCC(=O)N2CCN(C3CCC(c4ccccc4)CC3)CC2)cc1", "note": "(stereo unspecified)", "Potency": "active: 50.1 µM"},
      {"smiles": "CCCCn1c(O)c(C(C)=NCCc2ccccc2)c(=O)[nH]c1=O", "activity change, negative = inhibition": "inactive: 2.5%"},
      {"smiles": "Nc1cc(C(=O)Nc2ccc(Cl)cc2)ccc1N1CC2CC(C1)c1cccc(=O)n1C2", "note": "(stereo unspecified)", "Potency": "inconclusive: 79.4 µM [inhibitor, partial curve]"},
      {"smiles": "COc1ccc(NP(=O)(Oc2cccc(C)c2)Oc2cccc(C)c2)cc1OC", "Potency": "inconclusive: 28.2 µM [inhibitor, full curve]"},
      {"smiles": "C#CCOC(=O)C1=CCCN(C)C1", "Potency": "inconclusive: 89.1 µM [inhibitor, single point]"},
      {"smiles": "CC(=O)NS(=O)(=O)c1ccc(NC(=O)c2cccn(Cc3ccc(Cl)cc3)c2=O)cc1", "activity change, negative = inhibition": "inactive: 2.01%"},
      {"smiles": "CC(N)Cc1c[nH]c2c1ccc1ccccc12", "note": "(stereo unspecified)", "Potency": "inconclusive: 44.7 µM [inhibitor, partial curve]"},
      {"smiles": "COc1ccc(CCNCc2ccc(Br)cc2)cc1OC", "Potency": "active: 50.1 µM"},
      {"smiles": "Clc1ccccc1CN1CCN(c2cccc3[nH]ccc23)CC1", "Potency": "active: 39.8 µM"},
      {"smiles": "CN1CCc2cc3c(c4c2C1Cc1ccccc1-4)OCO3", "note": "(stereo unspecified)", "Potency": "inconclusive: 79.4 µM [inhibitor, single point]"},
      {"smiles": "Cc1ccccc1CN1CCc2nc(N3CCN(c4ccccn4)CC3)ncc2C1", "Potency": "inconclusive: 56.2 µM [inhibitor, partial curve]"},
      {"smiles": "Cc1ccc(C)c(-c2nnc(NC(=O)C3=COCCO3)o2)c1", "Potency": "inconclusive: 89.1 µM [inhibitor, single point]"},
      {"smiles": "Cc1cc(C=O)c(C)n1C1CC1", "Potency": "inconclusive: 79.4 µM [inhibitor, single point]"},
      {"smiles": "Cc1ccc(N2C(=O)NC(=O)C3(Cc4ccccc4N4CCN(c5ccccc5)CC43)C2=O)cc1", "note": "(stereo unspecified)", "activity change, negative = inhibition": "inactive: -32.4%"},
      {"smiles": "O=C1NC(=O)N(Cc2ccccc2)C(=O)/C1=C\\c1ccco1", "Potency": "active: 39.8 µM"},
      {"smiles": "COC(=O)[C@H]1[C@H]2C[C@@H]3c4[nH]c5cc(OC)ccc5c4CCN3C[C@H]2C[C@@H](OC(=O)/C=C/c2cc(OC)c(OC)c(OC)c2)[C@@H]1OC", "Potency": "inconclusive: 70.8 µM [inhibitor, single point]"},
      {"smiles": "CCN(CC)S(=O)(=O)c1cccc(N=Nc2c(O)n(CC)c(=S)n(CC)c2=O)c1", "Potency": "inconclusive: 10 µM [inhibitor, full curve]"},
      {"smiles": "Cc1ccc(-n2c(O)c(/C=N/N3CCOCC3)c(=O)[nH]c2=S)cc1", "Potency": "inconclusive: 89.1 µM [inhibitor, single point]"},
      {"smiles": "COc1ccc(N(CC(=O)Nc2cccc(SC)c2)S(C)(=O)=O)cc1Cl", "Potency": "inconclusive: 89.1 µM [inhibitor, single point]"},
      {"smiles": "O=C1NC(=O)N(Cc2ccc(F)cc2)C(=O)/C1=C\\c1ccc(N2CCCC2)cc1", "Potency": "inconclusive: 50.1 µM [inhibitor, partial curve]"},
      {"smiles": "COC1C(OC(=O)c2ccc(C)[nH]2)C(O)C(Oc2ccc3c(O)c(NC(=O)c4ccc(O)c(CC=C(C)C)c4)c(=O)oc3c2Cl)OC1(C)C", "note": "(stereo unspecified)", "Potency": "inconclusive: 50.1 µM [inhibitor, partial curve]"},
      {"smiles": "O=C(N/N=C/c1c(O)n(Cc2ccc(F)cc2)c(=O)[nH]c1=O)c1ccccc1", "Potency": "active: 79.4 µM"},
      {"smiles": "O=C(O)CCn1cc(C=C2C(=O)NC(=S)NC2=O)c(-c2cccc(Br)c2)n1", "Potency": "active: 79.4 µM"},
      {"smiles": "CCN(CC)c1ccc(N=Cc2c(O)n(-c3ccccc3C)c(=O)[nH]c2=O)cc1", "Potency": "inconclusive: 35.5 µM [inhibitor, full curve]"},
      {"smiles": "COc1ccc(CCNCc2ccccn2)cc1OC", "Potency": "inconclusive: 89.1 µM [inhibitor, single point]"},
      {"smiles": "COc1cccc(C(=O)N2C[C@H]3C[C@@H](C2)c2cccc(=O)n2C3)c1", "activity change, negative = inhibition": "inactive: -20.1%"},
      {"smiles": "CCOc1cc(CNCCc2c[nH]c3ccccc23)cc(Cl)c1OCC", "Potency": "inconclusive: 70.8 µM [inhibitor, single point]"},
      {"smiles": "Cc1c(OC(=O)N(C)C)ccc2c1O/C(=C\\c1ccco1)C2=O", "Potency": "active: 56.2 µM"}
    ]}
  ]
}
